These results are taken from the RNAGym collection of RNA variant scans (doi:10.1093/nar/gkz1192).

The chains are these.
B1: CPEB3 Ribozyme (parent)
chain: UAACAGGGGGCCACAGCAGAAGCGUUCACGUCGCAGCCCCUGUCAGAUUCUGGUGAAUCUGCGAAUUCUGCUGUAUAUCUC

The source gives no read counts; variants with many changes may rest on few reads.

Variants of B1 are the subject of the data set. The experiment in a line: self-cleavage, relative activity (ratio to wild type); higher = more cleavage; in vitro, sequencing. The method, boiled down:
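Libraries of CPEB3 self-cleaving ribozyme mutants came from rounds of error-prone PCR and carried barcodes, which DNA sequencing matched to variants. In vitro transcription used T7 RNA polymerase at 37°C for 5 hours, with a further 15 min in DNase I before EDTA stopped the reaction; the ribozymes cleaved during both steps. The RNA was reverse transcribed with template switching and sequenced on Illumina. Relative activity is the cleaved/total read fraction of a variant divided by that of the unmutated ribozyme, averaged over three batches with at least 5 reads.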
UAACAGGGGGCCACAGCAGGAGCGUUCACGUCGCAGCCCCUGACAGAUUCAGGUGAAUCUGCGAAUUCUGCUGAAUAUCUC [A20G U43A U51A U74A]: the self-cleavage came to 1.11.
As for UAACAGGGGGCCACAGCAGGAGCGUUCACGUCGCAGCCCCUGCCAGACUCUGGUGAAUCUGCGAAUUCUGCUGUAUAUCCC [A20G U43C U48C U80C], the self-cleavage amounted to 0.36.
For UAACAGGGGGCCACAGCAGGAGCGUUCACGUCGCAGCCCCCGUCAGAUUCUGGUGAAUCGGCGGAUUCUGCUGUAUAUCCC [A20G U41C U60G A64G U80C], the self-cleavage was 0.18.
As to UAACAGGGGGCCACAGCAGGAGCGUUCACGUCGCAGCCCCUGCCAGAUUCUGGUGAAUCCGCGAAUUCUGCUGUGUAUCUC [A20G U43C U60C A75G], the self-cleavage came to 0.09.
The same measure for UAACAGGGGGCCACAGCAGGAGCGUUCACGUCGCAGCCCCUGUCAGAUCCGGGUGAAUCUGCGAAUUCUGCUGUAUAUCUC [A20G U49C U51G]: 0.21; for UAACAGGGGGCCACAGCAGGAGCGUUCACGUCGCAGCCCCAGUCAGAUCCCGGUGAAUCUGCGAAUUCCGCUGUAUAUCUC [A20G U41A U49C U51C U69C]: 0.03.
As to UAACAGGGGGCCACAGCAGGAGCGUUCACGUCGCAGCCCCUGUCAGACUCUGGUGAAUCUGCGAAUUCUGCUGUAUGUCUC [A20G U48C A77G], the self-cleavage came out at 0.26.
For the variant UAACAGGGGGCCACAGCAGGAGCGUUCACGUCGCAGCCCCAGUCAGAUUCUGGUGAAUCUGCCAAUUCCGCUGUAUAUCUC [A20G U41A G63C U69C], the self-cleavage came to 0.11.
Regarding UAACAGGGGGCCACAGCAGGAGCGUUCACGUCGCAGCCCCUGUCAGAUUCAGGUGGAUCUGCGCAUUCUGCUGUAUAUCUC [A20G U51A A56G A64C], the self-cleavage was determined as 0.12.
On to UAACAGGGGGCCACAGCAGGAGCGUUCACGUCGCAGCCCCUGUCAGAUCCUGGUGAAUCUGCGAAUCCUGCUGUAUAUCUC [A20G U49C U67C], for which the self-cleavage came to 0.19.
As for UAACAGGGGGCCACAGCAGGAGCGUUCACGUCGCAGCCCCUGCCAGAUUCUGGGGCAUCUGCGAUUUCUGCUGUAUAUCUC [A20G U43C U54G A56C A65U], the self-cleavage was found to be 0.43.
On to UAACAGGGGGCCACAGCAGGAGCGUUCACGUCGCAGCCCCUGUCAGACUCUGGGGAAUCUGCGAGUUCUGCUGUAUAUCUC [A20G U48C U54G A65G], for which the self-cleavage amounted to 0.09.
In the case of UAACAGGGGGCCACAGCAGGAGCGUUCACGUCGCAGCCCCAGUCAGACUCUGGUGAAUCUGCGAGUUCUGCUGUAUAUCUC [A20G U41A U48C A65G], the self-cleavage stood at 0.17.
On to UAACAGGGGGCCACAGCAGGAGCGUUCACGGCGCAGCCCCUGUCUGAUUCUAGUGAAUCUGCGAAUUCUGCUGUAUAUCUC [A20G U31G A45U G52A], for which the self-cleavage amounted to 0.11.
Turning to UAACAGGGGGCCACAGCAGGAGCGUUCACGUCGCAGCCCCUGUCAGAUUCAGGUGAAUCUGCGAAUUCUGCUGUACAUCUC [A20G U51A U76C], the self-cleavage worked out at 1.05.
As for UAACAGGGGGCCACAGCAGGAGCGUUCACGUCGCAGCCCCUGUCAGAAUCUGGUGUAUCUGCGGAUUCUGCUGUAUAUCUC [A20G U48A A56U A64G], the self-cleavage amounted to 0.1.
As for UAACAGGGGGCCACAGCAGGAGCGUUCACGUCGCAGCCCCUGUCAGAUUCCGGGGAAUCUGCGAAUUCUGCAGUAUAUCUC [A20G U51C U54G U72A], the self-cleavage is 0.43.
In the case of UAACAGGGGGCCACAGCAGGAGCGUUCACGUCGCAGCCCCUGUCAGAUCCUGGUGAAUCUGCGAAUCCUGCUGUAUAUCCC [A20G U49C U67C U80C] it was 0.55.
On to UAACAGGGGGCCACAGCAGGAGCGUUCACGUCGCAGCCCCUGCCAGAUUCUGGUGAAUCUGCGAACUCUGCUGUAUAUCUC [A20G U43C U66C], for which the self-cleavage turned out to be 0.24.
The same measure for UAACAGGGGGCCACAGCAGGAGCGUUCACGUCGCAGCCCCUGUCAGACUCUGGUGAAUCUGCGUAUUCUGCUGUAUACCUC [A20G U48C A64U U78C]: 0.27; for UAACAGGGGGCCACAGCAGGAGCGUUCACGUCGCAGCCCCUGUCAGACUCUGGUGAGUCUGCGAAUUCCGCUGUAUAUCAC [A20G U48C A57G U69C U80A]: 0.53.
The same measure for UAACAGGGGGCCACAGCAGGAGCGUUCACGUCGCAGCCCCGGUCAGAUUCAGGUGAAUCUGCGAAUUCUGCUGUAUAACUC [A20G U41G U51A U78A]: 0.1.
With UAACAGGGGGCCACAGCAGGAGCGUUCACGUCGCAGCCCCUGUCAGAUACUGGUGAAUCUGCGAAUUCCGCUGUAUAUCUC [A20G U49A U69C], the self-cleavage was 0.39.
As to UAACAGGGGGCCACAGCAGGAGCGUUCACGUCGCAGCCCCCGUCAGAUUCUGGUGAUUAUGCGAAUUCUGCUGUAUAUCUC [A20G U41C A57U C59A], the self-cleavage stood at 0.13.
For UAACAGGGGGCCACAGCAGGAGCGUUCACGUCGCAGCCCCUGUCAGAUCCAGGUGGAUCUGCGAAUUCUGCUGUAUAUCUC [A20G U49C U51A A56G], the self-cleavage was found to be 0.32.
Regarding UAACAGGGGGCCACAGCAGGAGCGUUCACGUCGCAGCCCCUGUCAGAUCCUGGAGAAUCUGCGAAUUCUGCUGAAUAUCUC [A20G U49C U54A U74A], the self-cleavage was determined as 0.66.
Regarding UAACAGGGGGCCACAGCAGGAGCGUUCACGUCGCAGCCCCUGCCAGAUUUUGGUGAAUCUGCGUAUUCUGCCGUAUUUCUC [A20G U43C C50U A64U U72C A77U], the self-cleavage came to 0.08.
As for UAACAGGGGGCCACAGCAGGAGCGUUCACGUCGCAGCCCCUGACAGAUUCUGGGGAAUCUGCGAAUUCUGCUGUAUAUCUC [A20G U43A U54G], the self-cleavage stood at 0.49.
In the case of UAACAGGGGGCCACAGCAGGAGCGUUCACGUCGCAGCCCCUGUCAGACUCUGGUGAAUCUGCGGAUUCUGCUGUAUAUCUC [A20G U48C A64G] it was 0.24.
Regarding UAACAGGGGGCCACAGCAGGAGCGUUCACGUCGCAGCCCCAGUCAGAUUCUGGUGGAUCCGCGAAUUCUGCUGUAUAUCUC [A20G U41A A56G U60C], the self-cleavage came to 0.09.
In the case of UAACAGGGGGCCACAGCAGGAGCGUUCACGUCGCAGCCCCUGUCAGACUCUGGUGAAUCUGCGAAUGCUGCCGUAUAUCUC [A20G U48C U67G U72C] it was 0.11.
On to UAACAGGGGGCCACAGCAGGAGCGUUCACGUCGCAGCCCCUGCCAGAUUCUGGUGAAUCUGCGCAUUCUGCUGUAUAUCUC [A20G U43C A64C], for which the self-cleavage was 0.18.
For the variant UAACAGGGGGCCACAGCAGGAGCGUUCACGUCGCAGCCCCUGACAGAUUCUGGUGAAUCUGCGAAUUCCGCUGUAUAUCUC [A20G U43A U69C], the self-cleavage was 0.78.
With UAACAGGGGGCCACAGCAGGAGCGUUCACGUCGCAGCCCCUGCCAGAUUCUGGGGAAUCAGCGAAUUCUGCAGUAUAUCUC [A20G U43C U54G U60A U72A], the self-cleavage stood at 0.2.
